Measured values as given in PubChem BioAssay AID624417 (National Center for Advancing Translational Sciences (NCATS), 2012).
About 6,400 (1.6%) of roughly 410,000 compounds were called active. The shares of active, inactive and inconclusive entries below differ from those in the screen. Calls follow the shape of the dose curve; as a rule, active = well fitted inhibition curve with a large enough effect; inconclusive = small, poorly fitted or top-dose-only effect; inactive = no such curve, though single readings can be large or run the other way. Potencies of inconclusive entries are doubtful fits and often do not repeat.

Target: Glucagon-like peptide 1 receptor (Homo sapiens) (UniProt P43220)
UniProt P43220, sequence (P43220 whole entry, looked up): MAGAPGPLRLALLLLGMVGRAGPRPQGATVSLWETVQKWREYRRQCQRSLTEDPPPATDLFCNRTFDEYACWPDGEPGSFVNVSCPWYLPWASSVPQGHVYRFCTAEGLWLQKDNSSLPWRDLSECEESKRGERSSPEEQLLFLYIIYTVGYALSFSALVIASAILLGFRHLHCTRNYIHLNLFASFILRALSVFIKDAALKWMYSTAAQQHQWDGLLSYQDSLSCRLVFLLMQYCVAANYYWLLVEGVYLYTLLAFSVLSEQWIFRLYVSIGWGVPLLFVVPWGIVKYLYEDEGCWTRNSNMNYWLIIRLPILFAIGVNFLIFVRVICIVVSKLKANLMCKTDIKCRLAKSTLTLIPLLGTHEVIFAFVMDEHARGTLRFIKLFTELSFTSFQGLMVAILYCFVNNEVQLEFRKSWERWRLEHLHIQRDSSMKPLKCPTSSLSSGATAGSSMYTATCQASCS
Assay: qHTS of GLP-1 Receptor Inverse Agonists (Inhibition Mode); also: nearly all actives have a fitted effect of over 55% in size
Conditions: HEK293 GLP-1R CRE-luciferase, luminescence, 24 h, GLP-1R form is constitutively active; series mostly up to 38.3 µM
In short: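 Readout was luciferase luminescence, measured 12 min after detection reagent at room temperature. Beforehand, GLP-1R reporter HEK293 cells had sat 12 h, then received compounds for 24 hr at 37 deg C.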
Potency is read from the fitted curve at half-maximal effect; tags tell the direction and shape of the fitted curve.

Potency, inconclusive:
O=S(=O)(Nc1ccccc1N1CCCC1)c1ccccc1C(F)(F)F 31.6 µM [inhibitor, single point], Cc1ccc(C2(c3ccc(C)cc3)CC2C(=O)NC(C)C)cc1 (stereo not given) 10 µM [inhibitor, partial curve, poor fit], COc1ccc(C2c3cc4c(cc3OC(NNC(N)=O)C2C)OCO4)cc1 (stereo not given) 7.94 µM [inhibitor, single point], O=C(Cc1ccc(F)cc1)Nc1cccc2cccnc12 31.6 µM [inhibitor, single point], CCN(c1ccccc1C)S(=O)(=O)c1nnc(NC(=O)c2ccco2)s1 10 µM [inhibitor, partial curve], COC(=O)c1cccc(NC(=O)Nc2ccc(Cl)c(Cl)c2)c1 28.2 µM [inhibitor, single point], C/C(=N/NC(=O)c1cc(C(C)C)[nH]n1)c1cccs1 28.2 µM [inhibitor, single point], CSCCC(c1nnnn1C1CCCC1)N1CCN(C/C=C/c2ccccc2)CC1 (stereo not given) 28.2 µM [inhibitor, single point], CCCCCNc1nc2ccccc2nc1NS(=O)(=O)c1cccs1 31.6 µM [inhibitor, single point], O=C(NCCc1ccc(Cl)cc1)c1ccc2c(c1)OCO2 7.94 µM [inhibitor, single point], CCCC(=O)Nn1cnc2c(c1=O)C1(CCCCC1)Cc1ccccc1-2 12.6 µM [inhibitor, partial curve, poor fit], Cc1ccc(NC(=S)NC(=O)c2ccc(-c3ccccc3)cc2)c(C)c1 3.55 µM [inhibitor, full curve, poor fit], CCCOc1ccc(C2=CSC3=NCCN23)cc1Cl 10 µM [inhibitor, partial curve, poor fit], CCOC(=O)C1=CCN(S(=O)(=O)c2ccccc2C(=O)OC)C1c1ccc(Cl)cc1 (stereo not given) 28.2 µM [inhibitor, single point], C/C=C(/C)C(=O)OC(C)(C)[C@@H]1Cc2c(ccc3ccc(=O)oc23)O1 11.2 µM [inhibitor, partial curve], CCOC(=O)c1c(NC(=O)CCNCc2ccco2)sc2c1CCC2 20 µM [inhibitor, single point], COCCCNCCCCOc1ccccc1-c1ccccc1 11.2 µM [inhibitor, partial curve, poor fit], CCC1=NN2C(=N)/C(=C\c3cccn3-c3ccc(C)cc3C)C(=O)N=C2S1 12.6 µM [inhibitor, single point], O=C(CCS(=O)(=O)c1ccccc1)Nc1nc(-c2ccc(F)cc2)cs1 22.4 µM [inhibitor, single point], O=C(NCc1ccncc1)C1CCN(S(=O)(=O)c2ccc(Cl)c(C(F)(F)F)c2)CC1 17.8 µM [inhibitor, partial curve, poor fit], O=S(=O)(CCN1CCN(c2ccccc2O)CC1)c1cc(Cl)ccc1Cl 28.2 µM [inhibitor, single point], NC(=O)CC(NC(=O)c1cccc(Br)c1)c1ccc(NC2CCCCCCC2)c([N+](=O)[O-])c1 (stereo not given) 12.6 µM [inhibitor, single point], Cc1ccc(S(=O)(=O)/N=C2/NC(=O)/C(=C/c3ccccc3)S2)cc1 12.6 µM [inhibitor, single point], N#C/C(=C(/O)CSc1nnc(Cc2cccs2)n1C1CCCCC1)c1nc2ccccc2[nH]1 8.91 µM [inhibitor, partial curve, poor fit], Cc1ccc(NC(=O)CSCC(=O)Nc2cccc(S(=O)(=O)N3CCCCCC3)c2)cc1 11.2 µM [inhibitor, partial curve, poor fit], NC(=O)C1CCN(c2oc(-c3cccs3)nc2S(=O)(=O)c2ccc(Br)cc2)CC1 7.94 µM [inhibitor, partial curve, poor fit], CCOC(=O)C1=CN(Cc2cccc(F)c2)S(=O)(=O)N(C)C1c1ccc2ccccc2c1 (stereo not given) 10 µM [inhibitor, partial curve, poor fit], Cc1cccc(C(=O)N[C@H](C(=O)Nc2ccc3c(c2)OCO3)C(C)C)c1 12.6 µM [inhibitor, single point], CC(CN1CCN(C)CC1)OC(=O)c1ccc(Cl)cc1 (stereo not given) 11.2 µM [inhibitor, partial curve, poor fit], COc1ccc(-c2nc3cc(C)c(Br)c(C)n3c2Cc2cccc(F)c2)cc1OC 11.2 µM [inhibitor, partial curve, poor fit], COc1ccc(C(C)(NC(C)=O)c2nc(-c3ccc(F)cc3OC)cs2)cc1 (stereo not given) 28.2 µM [inhibitor, single point], Cc1nc2ccc(NC(=O)Cc3ccc(Br)cc3)cc2s1 25.1 µM [inhibitor, single point], O=C(Nc1ccc(F)cc1)c1cc(-c2ccncc2)nc2c(Cl)cccc12 8.91 µM [inhibitor, partial curve, poor fit], CCNc1nc(SCC(=O)Nc2ccc(Cl)c(Cl)c2)nc(N2CCOCC2)n1 12.6 µM [inhibitor, single point], Cc1ccc(C(C)C)c(OCc2nc(-c3nonc3N)no2)c1 31.6 µM [inhibitor, single point], CCCN(CC1CCCO1)C(=O)c1cc(COc2ccc(F)cc2F)on1 (stereo not given) 22.4 µM [inhibitor, single point], C/C(=C\c1ccccc1)CN1CCN(c2ccccc2F)CC1 28.2 µM [inhibitor, single point], COc1ccc(CNc2ncnc3c2[nH]c2cc(OC)c(OC)cc23)cc1 10 µM [inhibitor, partial curve, poor fit], CC(C)Oc1ccc(C(=O)OCC(=O)N2CCCc3ccccc32)cc1 25.1 µM [inhibitor, single point], FC(F)(F)c1cnc2c(c1)[nH]c(=S)n2-c1ccc(Cl)cc1 12.6 µM [inhibitor, single point], CCN1C(=O)[C@H]2[C@@H](c3ccc(C)cc3)N3C(=O)N(c4cccc(Cl)c4)C(=O)[C@@]3(Cc3ccccc3)[C@H]2C1=O 28.2 µM [inhibitor, single point], C/C(=N\Nc1nc2ccccc2s1)c1cccs1 28.2 µM [inhibitor, single point], Cc1ccc(C(=O)COC(=O)CCN2C(=O)C3C4C=CC(C5CC45)C3C2=O)cc1 (stereo not given) 28.2 µM [inhibitor, single point], CC(NC(=O)CN1CCN(c2cccc(Cl)c2)CC1)c1ccccc1 (stereo not given) 7.94 µM [inhibitor, partial curve, poor fit], COc1ccc(NC(=O)Cn2nc(C(F)(F)F)c3c2CCCC3)cc1OC 10 µM [inhibitor, partial curve, poor fit], CC1(C(=O)OCC(=O)NCc2ccc(Cl)cc2)CC1(Cl)Cl (stereo not given) 12.6 µM [inhibitor, single point], CCOC(=O)N1CCC(N(CCOC)C(=S)Nc2cccc(SC)c2)CC1 10 µM [inhibitor, single point], COc1ccc(C(=O)NCCCSc2ccccc2)cc1F 7.94 µM [inhibitor, partial curve, poor fit], O=S(=O)(NCC1CCCO1)c1ccc(S(=O)(=O)N(Cc2ccccc2F)C2CCCCC2)cc1 (stereo not given) 22.4 µM [inhibitor, single point]

Potency, inactive:
COCCNC(=O)C1(C)CCCN(C(=O)c2ccc(C(=O)OC)cc2)C1 (stereo not given), COc1cccc(N2C(N)=NC(N)=NC2(C)C)c1, Cc1ccc(-n2ncc(C(=O)NC3CCCCC3)c2C2CCN(C(=O)OC(C)(C)C)CC2)cc1, COc1ccc(C(=O)N2CCC(C)(C(=O)NS(=O)(=O)C3CC3)C2)c(OC)c1 (stereo not given), COc1ccc(CCNC(=O)c2ccc(Br)o2)cc1Br, O=CC(O)C1OC(=O)C(O)C1O (stereo not given), CCn1c(SCC(O)c2ccccc2)nnc1-c1ccccc1 (stereo not given), CCOc1cc(N2CCOCC2)c(OCC)cc1NC(=O)CSc1ccccc1C(=O)O, COC(=O)c1c(-c2ccc(Cl)cc2)noc1N1CCN(c2ccc(F)cc2)CC1, COc1ccc(S(=O)(=O)N2CCC(C(=O)NCCC(=O)Nc3ccccc3OC)CC2)cc1, Cc1ccc(CCNC(=O)CCS(=O)(=O)c2cc3c(cc2Cl)NC(=O)CO3)cc1, Cc1cc([N+](=O)[O-])cc2ncccc12, C=CCn1c(SC(C)C(=O)c2c(N)n(C)c(=O)n(C)c2=O)nnc1-c1ccoc1C (stereo not given), CN(C)S(=O)(=O)N(CC(=O)Nc1ccccc1)c1ccccc1

Potency, active:
CCC1CCc2sc(C(=O)N(C)CC(=O)Nc3ccc(OC)cc3)cc2C1 (stereo not given) 10 µM, CCO[C@@H]1OC(C(=O)Nc2ccccc2)=C[C@H](c2ccc(C(F)(F)F)cc2)[C@H]1CCCO 4.47 µM
